{
  "source": "PubChem BioAssay AID686970",
  "about": "(National Center for Advancing Translational Sciences (NCATS), 2013)",
  "note": "About 6,000 (1.7%) of roughly 360,000 compounds were called active. The inconclusive results got no clear call from the source; some entries with a clear call stand among them for comparison. Calls come from the whole dose curve; as a rule, active = well fitted cell-killing curve with a large enough effect; inconclusive = small, poorly fitted or top-dose-only effect, or effect the other way; inactive = flat fitted curve, though single readings scatter. No potency is given beside an inconclusive call; the fits are too rough. Potency is the fitted concentration of half-maximal effect; tags give direction and shape of the fitted curve.",
  "data": [
    {"assay": "qHTS for induction of synthetic lethality in tumor cells producing 2HG: qHTS for the HT-1080-NT fibrosarcoma cell line;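 note: NT is the 2HG producing partner of a matched IDH1 knockdown line; nearly all actives have a fitted effect of over 55% in size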;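 for activity, negative = less viability: 0% = DMSO-treated cells and -100% = media-only wells without cells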", "details": "HT-1080-NT fibrosarcoma viability, CellTiter-Glo ATP luminescence, 48 h; activity, negative = less viability: at 46.1 µM (top of the series) unless noted", "in_short": "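Fibrosarcoma NT cells, 750 per well in 5% FBS RPMI, were exposed to compound for 48 hours. Viability: CellTiter-Glo luminescence.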", "values": [
      {"smiles": "CC1COC(=O)C(NNc2ccc(Cl)c(Cl)c2)=N1", "note": "(stereo not given)", "Potency": "inconclusive [cytotoxic, partial curve]"},
      {"smiles": "O=C1CCC(C(=O)Nc2ccccc2N2CCOCC2)=NN1", "Potency": "inactive"},
      {"smiles": "COc1ccccc1N1CCN(C(=O)c2[nH]c(C(F)(F)F)nc2-c2ccccc2)CC1", "Potency": "active: 1.3 µM"},
      {"smiles": "Cc1cc(NCCCN2CCOCC2)n2nc(C)c(-c3ccc(F)cc3)c2n1", "Potency": "inconclusive [cytotoxic, single point]"},
      {"smiles": "O=C(Nc1ccc(Oc2ccccc2)cc1)c1csc([C@@H]2O[C@H](CO)[C@@H](O)[C@H]2O)n1", "Potency": "inconclusive [cytotoxic, full curve, poor fit]"},
      {"smiles": "CC(C)(C)c1ccc(-n2nc(C#N)c(Cl)cc2=O)cc1", "Potency": "active: 7.31 µM"},
      {"smiles": "CCOC(=O)Cn1c(=O)c2c(nc(Br)n2Cc2ccc(Cl)cc2)n(C)c1=O", "Potency": "inactive"},
      {"smiles": "CC(=NNc1nc2ccccc2o1)c1cc2ccccc2cn1", "Potency": "inconclusive [cytotoxic, single point]"},
      {"smiles": "O=c1[nH]ccc2c(O)cccc12", "Potency": "inconclusive [cytotoxic, partial curve]"},
      {"smiles": "Cc1[nH]c2ccccc2c1/C=N/NC(=S)NC(C)C", "Potency": "inconclusive [cytotoxic, single point]"},
      {"smiles": "CC(=O)OC(/C(O)=C(\\C#N)c1nc2ccccc2[nH]1)c1ccccc1", "note": "(stereo not given)", "Potency": "active: 8.91 µM"},
      {"smiles": "Cc1ccc(C(=O)NCCSc2ccc(Cl)cc2)cc1S(=O)(=O)Nc1ccccc1", "Potency": "inconclusive [cytotoxic, single point]"},
      {"smiles": "Cc1cc(C)c2nc(NNC(=O)c3ccc(S(=O)(=O)N4CCCC(C)C4)cc3)sc2c1", "note": "(stereo not given)", "Potency": "inconclusive [cytotoxic, single point]"},
      {"smiles": "CCN(CCCCOC(=O)c1ccc(OC)c(OC)c1)C(C)Cc1ccc(OC)cc1", "note": "(stereo not given)", "Potency": "active: 18.4 µM"},
      {"smiles": "N=c1c2c(n(Cc3ccc(F)cc3)c3c1CCC3)CCC2", "Potency": "active: 7.08 µM"},
      {"smiles": "Cc1cc(=O)cc(C)n1-c1ccc2c(c1)nc(C)n2-c1ccccc1", "Potency": "inconclusive [cytotoxic, single point]"},
      {"smiles": "COc1ccc(CCNC(=O)CSc2nc(C)cc(C)n2)cc1OC", "Potency": "inactive"},
      {"smiles": "N/C(=N\\OC(=O)/C=C/c1ccccc1Cl)c1ccccn1", "Potency": "inconclusive [rising, single point]"},
      {"smiles": "CCOC(=O)c1c(CN2CCCCC2C)oc2ccc(OC)cc12", "note": "(stereo not given)", "Potency": "inconclusive [cytotoxic, single point]"},
      {"smiles": "CCCCC[C@@H](C)N1C[C@@H](COCc2ccccc2)Oc2cc(N3CC[C@@H](N(C)C)C3)ccc2S1(=O)=O", "Potency": "active: 20.6 µM"},
      {"smiles": "Cc1ccccc1-c1ccc2c(c1)O[C@@H](CN(C)C(=O)Nc1ccc(C(F)(F)F)cc1)[C@H](C)CN([C@@H](C)CO)S2(=O)=O", "Potency": "active: 16.4 µM"},
      {"smiles": "O=C(c1cc(O)c(O)c([N+](=O)[O-])c1)c1ccccc1F", "Potency": "inconclusive [cytotoxic, single point]"},
      {"smiles": "O=C(CSc1nnc(-c2cccc(Cl)c2)o1)Nc1ccc2c(c1)OCCO2", "Potency": "inactive"},
      {"smiles": "CCOC(=O)C1=CN(Cc2ccco2)S(=O)(=O)N(C)C1c1ccc(C(F)(F)F)cc1", "note": "(stereo not given)", "Potency": "inactive"},
      {"smiles": "CC1CCC(C(C)C)C(OC(=O)COC(=O)c2cc(O)ccc2N)C1", "note": "(stereo not given)", "Potency": "inconclusive [cytotoxic, single point]"},
      {"smiles": "CC(=NNc1nc2ccccc2o1)c1ncccn1", "activity, negative = less viability": "inconclusive: -30.8% [cytotoxic]"},
      {"smiles": "O=C(Nc1ccccc1)Nc1ccc(S(=O)(=O)N2CCCCC2)cc1", "Potency": "inconclusive [cytotoxic, partial curve]"},
      {"smiles": "Cc1ccc(C)c2[nH]c(=O)c(CN(CC3CCCO3)C(=O)NC3CCCCC3)cc12", "note": "(stereo not given)", "Potency": "inconclusive [cytotoxic, single point]"},
      {"smiles": "CC1CCN(C(=O)c2[nH]cnc2C(=O)N[C@@H](CCCCNC(=O)OC(C)(C)C)C(=O)OC(C)(C)C)CC1", "Potency": "inconclusive [cytotoxic, single point]"},
      {"smiles": "COC(=O)c1sccc1NC(=O)CN(C)NS(=O)(=O)c1ccc(Cl)cc1", "Potency": "inconclusive [cytotoxic, single point]"},
      {"smiles": "COC(=O)c1c(C)oc2ccc(OC(=O)c3cccs3)cc12", "Potency": "inconclusive [rising, full curve]"},
      {"smiles": "COC(=O)C1=C(C(=O)OC)[C@@H]2N(Cc3ccccc3)c3ccccc3[C@@]23C[C@@H](C(=O)OC)N(C(=O)COCc2ccccc2)C3=N1", "Potency": "inactive"},
      {"smiles": "CCOC(=O)N1CCN(c2ccc(O)cc2)CC1", "Potency": "inconclusive [cytotoxic, single point]"},
      {"smiles": "CCc1nc(NC(C)(C)C)c2cnn(-c3ccccc3)c2n1", "Potency": "inconclusive [cytotoxic, single point]"},
      {"smiles": "O=C(CNC(=O)c1ccncc1)N/N=C/c1cc(Br)ccc1OCc1ccccc1", "Potency": "inconclusive [cytotoxic, single point]"},
      {"smiles": "Cc1ccccc1N=Nc1ccc(O)c2ncccc12", "Potency": "inconclusive [cytotoxic, partial curve]"},
      {"smiles": "COc1ccc(-c2coc3c(C(=O)NCC4CCOCC4)cccc23)c(C)c1", "Potency": "inconclusive [cytotoxic, partial curve]"},
      {"smiles": "O=C(Nc1ccccc1)C1CCN(c2nccs2)CC1", "Potency": "inactive"},
      {"smiles": "Cc1ccc(NC(=O)C/C(N)=N/OC(=O)c2ccccc2)cc1", "Potency": "inactive"},
      {"smiles": "Cc1ccc2nc(C(F)C(F)(F)F)[nH]c2c1", "note": "(stereo not given)", "Potency": "inconclusive [rising, partial curve]"},
      {"smiles": "Cc1ccccc1-c1cc(C(=O)n2cccn2)c2cc(Cl)ccc2n1", "Potency": "inconclusive [cytotoxic, partial curve]"},
      {"smiles": "COc1cc2c(cc1OC)C(c1ccc(-c3ccccc3Cl)o1)=NCC2", "Potency": "inconclusive [cytotoxic, single point]"},
      {"smiles": "CC1=NNC(=O)/C1=C\\c1cn(-c2ccccc2)nc1-c1cccs1", "Potency": "active: 8.2 µM"},
      {"smiles": "Cc1nn(-c2ccccc2)c2sc(C(=O)N(CC(=O)NC3CCCC3)Cc3ccco3)cc12", "Potency": "inconclusive [cytotoxic, partial curve]"},
      {"smiles": "Cc1ccc(-n2nnnc2SCCNS(=O)(=O)c2ccccc2)cc1C", "Potency": "inconclusive [cytotoxic, full curve, poor fit]"},
      {"smiles": "O=C(N/N=C/c1c[nH]c2ccccc12)c1cc(Cl)ccc1O", "Potency": "inconclusive [cytotoxic, partial curve]"},
      {"smiles": "COc1cc(NC(=O)c2ccc(-c3ccc(Br)cc3)o2)ccc1NC(=O)C(C)C", "Potency": "inactive"},
      {"smiles": "FC(F)(F)c1cccc(NC(=S)NCc2ccccc2)c1", "Potency": "inconclusive [cytotoxic, single point]"},
      {"smiles": "O=c1ccc2ccc(OCc3ccccc3)cc2o1", "Potency": "inactive"},
      {"smiles": "CC1(C)CC(=O)c2cc(C(=O)NNc3ccccc3)c(=O)n(-c3ccccc3)c2C1", "Potency": "inconclusive [cytotoxic, partial curve, poor fit]"},
      {"smiles": "COc1ccnc(CSC(N)=Nc2ccccc2OC)c1", "Potency": "inconclusive [cytotoxic, single point]"},
      {"smiles": "CC(C)C(C(=O)Nc1ccccc1)N1C(=O)c2ccccc2C1=O", "note": "(stereo not given)", "Potency": "inconclusive [rising, single point]"},
      {"smiles": "O=[N+]([O-])c1cc(S(=O)(=O)Oc2ccccc2)ccc1Cl", "Potency": "active: 14.6 µM"},
      {"smiles": "O=C(NN=Cc1ccccc1C(=O)O)c1ccc(NS(=O)(=O)c2cccs2)cc1", "Potency": "inactive"},
      {"smiles": "O=C(OCc1ccc([N+](=O)[O-])cc1)c1cc([N+](=O)[O-])ccc1N1CCOCC1", "activity, negative = less viability": "inconclusive: -33.5% [cytotoxic]"},
      {"smiles": "CC(C)(C)C1CCC(C(=O)OCC(=O)N2CCOCC2)CC1", "note": "(stereo not given)", "Potency": "inactive"},
      {"smiles": "Cc1cc(C)n2nc(CNS(=O)(=O)c3ccc(F)cc3)nc2n1", "Potency": "inactive"},
      {"smiles": "CCOc1ccc(CN(C)CC(O)COC(c2ccc(OC)cc2)c2ccc(OC)cc2)cc1", "note": "(stereo not given)", "Potency": "active: 16.4 µM"},
      {"smiles": "CCNc1oc(-c2cccc3ccccc23)nc1C#N", "Potency": "inconclusive [cytotoxic, single point]"},
      {"smiles": "O=C(NC1CCCC1)C(c1ccccc1)n1c(CSCCOc2ccccc2)nc2ccccc21", "note": "(stereo not given)", "Potency": "inconclusive [cytotoxic, partial curve]"},
      {"smiles": "O=C(COC(=O)/C=C/c1ccc([N+](=O)[O-])cc1)NC(=O)NC1CCCCC1", "Potency": "inconclusive [cytotoxic, single point]"},
      {"smiles": "O=C(c1ccc(F)cc1)C1CCN(C(=S)Nc2ccc(F)cc2)CC1", "Potency": "inconclusive [cytotoxic, single point]"},
      {"smiles": "Cc1cc(C)c(C)c(S(=O)(=O)N2CCC(C(=O)NCC(c3ccccc3)N(C)C)CC2)c1C", "note": "(stereo not given)", "Potency": "inconclusive [cytotoxic, single point]"},
      {"smiles": "O=C(N/N=C/c1ccc(Cl)cc1)C1CC12CCC2", "note": "(stereo not given)", "Potency": "inactive"},
      {"smiles": "Cc1ccc(S(=O)(=O)N(CC(=O)NCc2ccc(F)cc2)C(=O)N2CCN(C)CC2)cc1", "Potency": "inactive"},
      {"smiles": "COc1ccc(C(C)(C)C)cc1NC(=O)c1cccc(S(=O)(=O)N2CCN(C(C)=O)CC2)c1", "Potency": "inconclusive [cytotoxic, single point]"},
      {"smiles": "Cc1cc(=O)oc2cc(NC(=O)Cc3ccccc3)ccc12", "Potency": "inactive"},
      {"smiles": "CC(COc1cccc2ccccc12)CN1CCN(C)CC1", "note": "(stereo not given)", "Potency": "inconclusive [cytotoxic, single point]"},
      {"smiles": "COc1ccc(C(C(=O)NCc2ccccc2)n2c(=O)c(-c3ccco3)nc3ccccc32)cc1", "note": "(stereo not given)", "Potency": "inconclusive [cytotoxic, single point]"},
      {"smiles": "CCCCN(C(=O)c1ccc(C)c(S(=O)(=O)N2CCOCC2)c1)c1c(N)n(CCCC)c(=O)[nH]c1=O", "activity, negative = less viability": "inconclusive: 32%"}
    ]}
  ]
}
